Experimental data from paper PMC4336329 (PLoS ONE, 2015).
The campaign covered roughly 310,000 compounds. About 2,200 (0.71%) showed an effect of 50% or more. The effect is printed as a negative number. This is one part of the list.

Molecular target: human ether-à-go-go-related gene (hERG) potassium channel (human, UniProt Q12809)
Test: primary screen, population patch clamp on CHO cells stably expressing hERG

Sequence of human ether-à-go-go-related gene (hERG) potassium channel (Q12809 whole entry, looked up): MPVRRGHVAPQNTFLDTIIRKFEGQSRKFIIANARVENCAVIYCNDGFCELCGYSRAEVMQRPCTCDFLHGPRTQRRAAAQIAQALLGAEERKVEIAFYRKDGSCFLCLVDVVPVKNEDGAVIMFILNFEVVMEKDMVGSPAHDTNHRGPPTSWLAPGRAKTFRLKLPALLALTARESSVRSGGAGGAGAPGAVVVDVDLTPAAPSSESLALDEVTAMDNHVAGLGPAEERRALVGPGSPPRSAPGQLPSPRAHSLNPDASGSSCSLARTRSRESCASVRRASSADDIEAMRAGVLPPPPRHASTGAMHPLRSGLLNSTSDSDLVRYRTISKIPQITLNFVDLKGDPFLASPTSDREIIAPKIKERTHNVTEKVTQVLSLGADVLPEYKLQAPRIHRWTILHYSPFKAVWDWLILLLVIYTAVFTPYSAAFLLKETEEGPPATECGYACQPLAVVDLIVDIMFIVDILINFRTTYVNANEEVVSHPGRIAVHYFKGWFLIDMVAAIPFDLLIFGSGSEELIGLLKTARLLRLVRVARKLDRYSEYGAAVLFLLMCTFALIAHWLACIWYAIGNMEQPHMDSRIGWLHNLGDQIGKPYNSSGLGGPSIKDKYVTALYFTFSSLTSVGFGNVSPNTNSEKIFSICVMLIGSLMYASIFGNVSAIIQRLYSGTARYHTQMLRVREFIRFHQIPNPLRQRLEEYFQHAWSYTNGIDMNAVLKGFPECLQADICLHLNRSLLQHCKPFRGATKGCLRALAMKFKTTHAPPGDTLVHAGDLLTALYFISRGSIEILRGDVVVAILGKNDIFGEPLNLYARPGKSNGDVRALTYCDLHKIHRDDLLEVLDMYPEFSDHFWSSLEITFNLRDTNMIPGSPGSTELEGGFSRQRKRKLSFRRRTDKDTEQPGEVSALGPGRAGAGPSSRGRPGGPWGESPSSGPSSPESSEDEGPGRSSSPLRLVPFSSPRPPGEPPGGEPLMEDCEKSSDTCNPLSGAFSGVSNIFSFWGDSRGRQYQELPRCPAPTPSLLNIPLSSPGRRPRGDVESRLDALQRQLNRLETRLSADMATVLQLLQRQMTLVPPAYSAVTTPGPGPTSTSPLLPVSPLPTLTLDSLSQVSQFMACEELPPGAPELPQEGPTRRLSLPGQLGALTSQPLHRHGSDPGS

Structure (SMILES)	hERG current change (%, negative = inhibition) at 1uM
C=CCOc1ccc(C2C(C(=O)c3ccco3)=C(O)C(=O)N2c2nnc(C)s2)cc1 (centres unmarked)	12.2%
N#CNC(=Nc1ccccc1F)SCc1ccc(C(=O)O)cc1	2.33%
O=C1NC(Cc2ccccc2)c2nc3cc(F)ccc3c(=O)n2-c2ccc(Cl)cc21 (centres unmarked)	16.1%
Cn1cc(-c2nnnn2-c2cccc(C(F)(F)F)c2)c(C(F)(F)F)n1	3.49%
Cc1ccccc1C(=O)c1cccn1CC(=O)NCc1ccco1	7.07%
NC(=O)CC(NC(=O)c1ccc(Br)cc1)c1ccc(N2CCC(Br)CC2)c([N+](=O)[O-])c1 (centres unmarked)	2.36%
Cc1cnc(NC(=O)COc2ccc3c(c2)CCC3)s1	7.35%
Cc1nn(C)c(C)c1CS(=O)(=O)c1ccccc1	11.3%
Cc1ccc(CSCC(=O)Nc2ccc(N3CCOCC3)cc2N2CCOCC2)cc1	-3.89%
CCn1c(C)[n+](CCCS(=O)(=O)[O-])c2cc(Cl)c(Cl)cc21	15.8%
COc1cc(NC(=O)C(c2ccccc2)c2ccccc2)c(C(=O)O)cc1OC	16.1%
COc1cccc(NC(=O)C2CCCN2S(=O)(=O)c2ccc3c(c2)n(C)c(=O)c(=O)n3C)c1 (centres unmarked)	14.4%
CN(C)c1ccc(/C=C2\NC(=S)N(Cc3ccccc3)C2=O)cc1	11.7%
O=C(CSc1ncnc2c1oc1ccccc12)N1CCN(c2ccccc2)CC1	5.87%
O=C(COc1ccc(S(=O)(=O)NC2CCCCC2)cc1Cl)NCc1ccc2c(c1)OCO2	10.3%
CC/C(=N\NC(=O)c1ccc2c(c1)OCO2)c1ccccc1	13.8%
CCOC(=O)c1cc(CC)sc1/N=C/C1=C(O)CCCC1=O	4%
Cc1ccc(C2=NN(C(=O)CNCCO)C(c3cccs3)C2)cc1 (centres unmarked)	7.04%
N#C/C(=C\c1cccnc1)c1ccc(Br)cc1	-1.9%

Structure (SMILES)	hERG current change (%, negative = inhibition) at 1uM
Cl.c1cc2n(c1)-c1c(ccc3c1OCO3)CNC2c1ccc2c(c1)OCO2 (centres unmarked)	0.451%
Cn1c(SCC(=O)NNC(=O)c2ccc(Cl)cc2)nnc1-c1cccnc1	21.8%
COC(=O)[C@@H](NC(=O)CCc1nnc(-c2ccsc2)o1)C(C)C	9.32%
Cc1oc(-c2cccs2)nc1CN1CCC(c2ccccc2)CC1	-23.4%
Cc1nc(CCNC(=O)CC2C(=O)NCCN2CC(C)(C)C)nc2c1CCC2 (centres unmarked)	2.12%
COc1ccc(CCC(=O)Nc2cc3c4c(c2)CC(=O)N4CCC3)cc1	-3.39%
Cc1noc(C)c1CSCC(=O)Oc1ccc(N(C)S(=O)(=O)c2ccccc2)cc1	9.9%
O=C1N=C(N2C=CC(=C3C=CNC=C3)C=C2)/C(=C/N=NC(=O)c2ccccc2O)S1	11.5%
COc1ccccc1-c1cnn2c(NCCc3ccccc3)cc(C)nc12	15%
Cc1cc(C)cc(N(C(=O)CNC(=O)c2ccco2)C(C(=O)NC2CCCCC2)c2ccncc2)c1 (centres unmarked)	1.38%
CC(=O)N[C@H]1[C@H]([C@H](O)[C@H](O)CO)OC(C(=O)O)=C[C@@H]1O	4.04%
Cc1cc(NC(=O)C(C)SCC(=O)Nc2ccccc2OC(F)F)no1 (centres unmarked)	2.9%
O=C1CCC(=O)N1CN(Cc1ccco1)CN1C(=O)CCC1=O	11%
CC(=O)CC(=O)C1C(=O)N(C)C(=O)N(C)C1=O	10.1%
O=C(Nc1cc([N+](=O)[O-])ccc1N1CCOCC1)c1ccco1	-5.22%
CCS(=O)(=O)n1nc(-c2ccc(OC)cc2)nc1N	18.8%
COc1ccc(NC(=O)Cn2nc(C(F)(F)F)c3c2CCCC3)c(OC)c1	16.9%
Cc1nn2c(=S)[nH]nc2[nH]c1=O	14.3%
COc1cccc(C(=O)Nc2nnc(S(=O)(=O)N3CCCC3)s2)c1	14.6%

Structure (SMILES)	hERG current change (%, negative = inhibition) at 1uM
COc1ccccc1Nc1c2ccccc2nc2ccccc12	-18.4%
OCC1(Cc2ccc(F)cc2F)CCCN(CCCc2ccccc2)C1 (centres unmarked)	-56.1%
O=C(COc1ccc(Cl)cc1Cl)Nc1nc2n(n1)C(c1ccccc1)CC(=O)N2 (centres unmarked)	1.52%
CC(C)[C@H](NC(=O)N1CCn2c1nc1ccccc12)C(=O)N1CCCCC1	15.8%
CC(C)(Oc1ccc(Cl)cc1)C(=O)NCCCn1ccnc1	1.77%
S=c1nc[nH]c2c1sc1nc(-c3ccccc3)c3c(c12)CCCC3	-1.25%
O=C1CSC(c2cn(-c3ccccc3)nc2-c2ccccc2)N1Cc1ccco1 (centres unmarked)	4.68%
CC1=C(C(=O)OCCOC(C)C)C(c2cc3c(cc2Br)OCO3)C2=C(CCCC2=O)N1 (centres unmarked)	7.15%
O=C(Nc1cccc(C(F)(F)F)c1)C1CCCCC1	4.96%
O=C(CCCCCn1c(=O)[nH]c2ccsc2c1=O)NCc1ccc(F)cc1	15.9%
COc1cccc(CN2CCN(CCc3ccccc3)C(CCO)C2)c1OC (centres unmarked)	-3.13%
CCn1c(Cc2ccccc2)nnc1SCC(=O)Nc1ccc(S(N)(=O)=O)cc1	6.94%
O=C(CN1C(=O)C2CCCCC2C1=O)OCc1nnc(-c2ccccc2)o1 (centres unmarked)	8.04%
O=C(Nc1ccc2c(c1)OCO2)C1CC(c2ccc(Cl)cc2)=NO1 (centres unmarked)	4.23%
NNC(=O)CCN1CCN(Cc2ccccc2)CC1	6.92%
Cc1ccc(S(=O)(=O)N(Cc2cc3ccccc3[nH]c2=O)CC2CCCO2)cc1 (centres unmarked)	11.7%
COc1ccc(-c2csc(NC(=O)C3=NN(c4ccccc4)C(=O)CC3)n2)cc1	7.49%
Clc1cc(NCc2cccs2)ccc1N1CCOCC1	13.1%
